Laboratory results as given in the supplement of paper PMC10037445.
Values joined by “and” are separate entries in the source; they are usually repeats but may differ in a detail not shown here. Equal entries are not always repeated. The full ranking holds about 2,900 compounds; the median of “NF-kB SEAP reporter activity, fold change vs agonist alone” is about 0.99, and the highest 2% start at about 2.6. Some of the results follow.

Assays:
[1] = system: RAW-Dual; assay: NF-kB SEAP reporter activity, fold change vs agonist alone; cytotoxicity flag (confluency mask): not cytotoxic; higher = enhanced NF-kB activity
Summary of the method: (§1)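 Cytotoxic wells were those whose IncuCyte confluency was below 70% of agonist controls in both mask sets. The cells were RAW-Dual macrophages at 50,000 cells/well in DMEM on 384-well plates, dosed with 50 nL of library stock by pin tool, stimulated with a PRR agonist 1 h later, and kept at 37 °C, 5% CO2 for 20 hours. IRF and NF-κB reporter activity, as fold change over agonist-alone wells, came from supernatant read by QuantiLuc luminescence and QuantiBlue absorbance, respectively.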

[2] = system: RAW-Dual; assay: NF-kB SEAP reporter activity, fold change vs agonist alone; higher = enhanced NF-kB activity; settings: library stock concentration (final ~1000-fold dilution): 10 mM
Summary of the method: as §1

[3] = system: RAW-Dual; assay: NF-kB SEAP reporter activity, fold change vs agonist alone; cytotoxicity flag (confluency mask): cytotoxic (confluency <70% of control); higher = enhanced NF-kB activity
Summary of the method: as §1

[4] = agonist: ODN 1826 (TLR9) 0.5 ug/mL
[5] = agonist: Pam2CSK4 (TLR2/6) 0.1 ug/mL
[6] = agonist: Pam3CSK4 (TLR2/1) 0.1 ug/mL
[7] = cytotoxicity flag (confluency mask): not cytotoxic, agonist: MPLA (TLR4) […]
[8] = cytotoxicity flag (confluency mask): not cytotoxic, agonist: Imiquimod (TLR7) […]
[9] = cytotoxicity flag (confluency mask): cytotoxic (confluency <70% of control), agonist: Imiquimod (TLR7) […]
[10] = cytotoxicity flag (confluency mask): cytotoxic (confluency <70% of control), agonist: MPLA (TLR4) […]

## O=C(Nc1ncc([N+](=O)[O-])s1)c1ccccc1O (library stock concentration (final ~1000-fold dilution): 10 mM)
[1]; agonist: LPS (TLR4) 0.1 ug/mL
  NF-kB SEAP reporter activity: 0.954
[1]; [4]
  NF-kB SEAP reporter activity: 1.21
[1]; [5]
  NF-kB SEAP reporter activity: 0.573
[1]; [6]
  NF-kB SEAP reporter activity: 0.684

## O=C(Nc1ncc([N+](=O)[O-])s1)c1ccccc1O
[2]; [7]
  NF-kB SEAP reporter activity: 0.945

## CN(C)CCOC(c1ccc(Cl)cc1)c1ccccn1.O=C(O)/C=C\C(=O)O (stereo not drawn) (library stock concentration (final ~1000-fold dilution): 10 mM)
[1]; agonist: LPS (TLR4) 0.1 ug/mL
  NF-kB SEAP reporter activity: 1.1
[1]; [4]
  NF-kB SEAP reporter activity: 0.846
[1]; [5]
  NF-kB SEAP reporter activity: 1.07
[1]; [6]
  NF-kB SEAP reporter activity: 1.09

## CN(C)CCOC(c1ccc(Cl)cc1)c1ccccn1.O=C(O)/C=C\C(=O)O (stereo not drawn)
[2]; [7]
  NF-kB SEAP reporter activity: 0.989

## Cl.O=C1C2CCCCC2C(=O)N1CCCCN1CCN(c2nsc3ccccc23)CC1 (stereo not drawn) (library stock concentration (final ~1000-fold dilution): 10 mM)
[1]; agonist: LPS (TLR4) 0.1 ug/mL
  NF-kB SEAP reporter activity: 0.671
[1]; [4]
  NF-kB SEAP reporter activity: 0.536
[1]; [5]
  NF-kB SEAP reporter activity: 0.848
[1]; [6]
  NF-kB SEAP reporter activity: 0.888

## Cl.O=C1C2CCCCC2C(=O)N1CCCCN1CCN(c2nsc3ccccc23)CC1 (stereo not drawn)
[2]; [7]
  NF-kB SEAP reporter activity: 0.868

## O=C(OC1CC2CC3CC(C1)N2CC3=O)c1c[nH]c2ccccc12 (stereo not drawn) (library stock concentration (final ~1000-fold dilution): 10 mM)
[1]; agonist: LPS (TLR4) 0.1 ug/mL
  NF-kB SEAP reporter activity: 0.553
[1]; [4]
  NF-kB SEAP reporter activity: 0.608
[1]; [5]
  NF-kB SEAP reporter activity: 0.712
[1]; [6]
  NF-kB SEAP reporter activity: 0.66

## O=C(OC1CC2CC3CC(C1)N2CC3=O)c1c[nH]c2ccccc12 (stereo not drawn)
[2]; [7]
  NF-kB SEAP reporter activity: 0.823

## CC(C)CC(NC(=O)C1OC1C(=O)O)C(=O)NCCCCNC(=N)N (stereo not drawn)
[2]; [8]
  NF-kB SEAP reporter activity: 0.971
[2]; [7]
  NF-kB SEAP reporter activity: 1.11

## CC(C)CC(NC(=O)C1OC1C(=O)O)C(=O)NCCCCNC(=N)N (stereo not drawn) (library stock concentration (final ~1000-fold dilution): 10 mM)
[1]; agonist: LPS (TLR4) 0.1 ug/mL
  NF-kB SEAP reporter activity: 0.999
[1]; [4]
  NF-kB SEAP reporter activity: 1.01
[1]; [5]
  NF-kB SEAP reporter activity: 1.12
[1]; [6]
  NF-kB SEAP reporter activity: 1.12

## CC(C)c1ccc(C(=O)NC(=N)N)cc1S(C)(=O)=O (library stock concentration (final ~1000-fold dilution): 10 mM)
[1]; agonist: LPS (TLR4) 0.1 ug/mL
  NF-kB SEAP reporter activity: 1
[1]; [4]
  NF-kB SEAP reporter activity: 0.918
[1]; [5]
  NF-kB SEAP reporter activity: 0.983
[1]; [6]
  NF-kB SEAP reporter activity: 1.1

## CC(C)c1ccc(C(=O)NC(=N)N)cc1S(C)(=O)=O
[2]; [8]
  NF-kB SEAP reporter activity: 0.914
[2]; [7]
  NF-kB SEAP reporter activity: 1.1

## CCc1cncnc1N1CCN(Cc2nc3cc(C(F)(F)F)ccc3[nH]2)CC1
[2]; [8]
  NF-kB SEAP reporter activity: 0.91
[2]; [7]
  NF-kB SEAP reporter activity: 0.753

## CCc1cncnc1N1CCN(Cc2nc3cc(C(F)(F)F)ccc3[nH]2)CC1 (library stock concentration (final ~1000-fold dilution): 10 mM)
[1]; agonist: LPS (TLR4) 0.1 ug/mL
  NF-kB SEAP reporter activity: 0.934
[1]; [4]
  NF-kB SEAP reporter activity: 1.18
[1]; [5]
  NF-kB SEAP reporter activity: 1.13
[1]; [6]
  NF-kB SEAP reporter activity: 1.69

## COc1ccc(-n2c(C)c([N+](=O)[O-])c3ccc(O)cc32)cc1 (library stock concentration (final ~1000-fold dilution): 10 mM)
[1]; agonist: LPS (TLR4) 0.1 ug/mL
  NF-kB SEAP reporter activity: 1.9
[1]; [4]
  NF-kB SEAP reporter activity: 0.559
[1]; [5]
  NF-kB SEAP reporter activity: 1.07
[1]; [6]
  NF-kB SEAP reporter activity: 2.14

## COc1ccc(-n2c(C)c([N+](=O)[O-])c3ccc(O)cc32)cc1
[2]; [8]
  NF-kB SEAP reporter activity: 1.19
[2]; [7]
  NF-kB SEAP reporter activity: 2.08

## O=S(=O)(c1ccccc1)c1cnc2c(N3CCNCC3)cccc2c1
[2]; [8]
  NF-kB SEAP reporter activity: 1.02
[2]; [7]
  NF-kB SEAP reporter activity: 0.963

## O=S(=O)(c1ccccc1)c1cnc2c(N3CCNCC3)cccc2c1 (library stock concentration (final ~1000-fold dilution): 10 mM)
[1]; agonist: LPS (TLR4) 0.1 ug/mL
  NF-kB SEAP reporter activity: 0.796
[1]; [4]
  NF-kB SEAP reporter activity: 0.35
[1]; [5]
  NF-kB SEAP reporter activity: 0.984
[1]; [6]
  NF-kB SEAP reporter activity: 1.1

## NC(=O)N1CCC(CC(=O)N2CCC(C3c4ncc(Br)cc4CCc4cc(Cl)cc(Br)c43)CC2)CC1 (stereo not drawn) (library stock concentration (final ~1000-fold dilution): 10 mM)
[3]; agonist: LPS (TLR4) 0.1 ug/mL
  NF-kB SEAP reporter activity: 0.422
[3]; [4]
  NF-kB SEAP reporter activity: 0.347
[3]; [5]
  NF-kB SEAP reporter activity: 0.171
[3]; [6]
  NF-kB SEAP reporter activity: 0.223

## NC(=O)N1CCC(CC(=O)N2CCC(C3c4ncc(Br)cc4CCc4cc(Cl)cc(Br)c43)CC2)CC1 (stereo not drawn)
[2]; [9]
  NF-kB SEAP reporter activity: 0.614
[2]; [10]
  NF-kB SEAP reporter activity: 0.603

## CCOc1cc(C(C)(C)C)ccc1C1=NC(C)(c2ccc(Cl)cc2)C(C)(c2ccc(Cl)cc2)N1C(=O)N1CCN(CCCS(C)(=O)=O)CC1 (stereo not drawn) (library stock concentration (final ~1000-fold dilution): 10 mM)
[3]; agonist: LPS (TLR4) 0.1 ug/mL
  NF-kB SEAP reporter activity: 0.487
[3]; [4]
  NF-kB SEAP reporter activity: 0.354
[3]; [5]
  NF-kB SEAP reporter activity: 0.161
[3]; [6]
  NF-kB SEAP reporter activity: 0.179

## CCOc1cc(C(C)(C)C)ccc1C1=NC(C)(c2ccc(Cl)cc2)C(C)(c2ccc(Cl)cc2)N1C(=O)N1CCN(CCCS(C)(=O)=O)CC1 (stereo not drawn)
[2]; [9]
  NF-kB SEAP reporter activity: 1.13
[2]; [10]
  NF-kB SEAP reporter activity: 0.79

## CCCC(=O)Nc1ccc(OCC(O)CNC(C)C)c(C(C)=O)c1.Cl (stereo not drawn) (library stock concentration (final ~1000-fold dilution): 10 mM)
[1]; agonist: LPS (TLR4) 0.1 ug/mL
  NF-kB SEAP reporter activity: 1.54
[1]; [4]
  NF-kB SEAP reporter activity: 1.08
[1]; [5]
  NF-kB SEAP reporter activity: 1.11
[1]; [6]
  NF-kB SEAP reporter activity: 1.16

## CCCC(=O)Nc1ccc(OCC(O)CNC(C)C)c(C(C)=O)c1.Cl (stereo not drawn)
[2]; [8]
  NF-kB SEAP reporter activity: 1
[2]; [7]
  NF-kB SEAP reporter activity: 1.08

## CCCCS(=O)c1sc2nc(-c3cccs3)cc(-c3ccccc3)c2c1N (stereo not drawn) (library stock concentration (final ~1000-fold dilution): 10 mM)
[1]; agonist: LPS (TLR4) 0.1 ug/mL
  NF-kB SEAP reporter activity: 1.55
[1]; [4]
  NF-kB SEAP reporter activity: 0.779
[1]; [5]
  NF-kB SEAP reporter activity: 0.91
[1]; [6]
  NF-kB SEAP reporter activity: 0.544

## CCCCS(=O)c1sc2nc(-c3cccs3)cc(-c3ccccc3)c2c1N (stereo not drawn)
[2]; [8]
  NF-kB SEAP reporter activity: 0.589
[2]; [7]
  NF-kB SEAP reporter activity: 1.42

## Nc1nc2[nH]cc(CCc3ccc(C(=O)NC(CCC(=O)O)C(=O)O)cc3)c2c(=O)[nH]1 (stereo not drawn) (library stock concentration (final ~1000-fold dilution): 10 mM water)
[1]; agonist: LPS (TLR4) 0.1 ug/mL
  NF-kB SEAP reporter activity: 1.51 and 1.2
[1]; [4]
  NF-kB SEAP reporter activity: 1.67 and 1.49
[1]; [5]
  NF-kB SEAP reporter activity: 1.45 and 1.39
[1]; [6]
  NF-kB SEAP reporter activity: 1.52 and 1.31
